# From the supplement of paper PMC8728848
# This is one part of the list.
# B1: HBHA-Rv (Mycobacterium tuberculosum), P0A5P6 (protein)
# chain: MAENSNIDDIKAPLLAALGAADLALATVNELITNLRERAEETRTDTRSRVEESRARLTKLQEDLPEQLTELREKFTAEELRKAAEGYLEAATSRYNELVERGEAALERLRSQQSFEEVSARAEGYVDQAVELTQEALGTVASQTRAVGERAAKLVGIELPKKAAPAKKAAPAKKAAPAKKAAAKKAPAKKAAAKKVTQK
# Experiments:
# Assay in all cases: glycan array binding signal (z-score within array); higher = stronger binding
# Settings in all cases: glycan notation: IUPAC condensed, linker removed
# GalNAc(b1-4)GlcNAc = biological target: GalNAc(b1-4)GlcNAc
# Outline: (§1)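 From the Consortium for Functional Glycomics database, 3228 arrays were curated, keeping only those whose protein sequence was available. Binding is given as a within-array Z-score averaged across arrays sharing a protein sequence and across linkers. Negative Z-scores can be read as non-binding.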
# [1] = biological target: GalNAc(b1-4)GlcNAc(b1-2)Man
# Outline: as §1
# [2] = biological target: GalNAc(b1-4)GlcNAc(b1-2)Man(a1-3)[GalNAc(b1-4)GlcNAc(b1-2)Man(a1-6)]Man(b1-4)GlcNAc(b1-4)GlcNAc
# Outline: as §1
# [3] = biological target: GalNAc(b1-4)GlcNAc(b1-3)GalNAc(b1-4)GlcNAc
# Outline: as §1
# GalNAc(b1-4)GlcNAc6S = biological target: GalNAc(b1-4)GlcNAc6S
# Outline: as §1
# GalNAc(b1-6)GalNAc = biological target: GalNAc(b1-6)GalNAc
# Outline: as §1
# GalNAc3S(b1-4)GlcNAc = biological target: GalNAc3S(b1-4)GlcNAc
# Outline: as §1
# GalNAc3S(b1-4)GlcNAc3S = biological target: GalNAc3S(b1-4)GlcNAc3S
# Outline: as §1
# [4] = biological target: GalNAc3S(b1-4)[Fuc(a1-3)]GlcNAc
# Outline: as §1
# GalNAc4S6S(b1-4)GlcNAc = biological target: GalNAc4S6S(b1-4)GlcNAc
# Outline: as §1
# GalNAc6S(b1-4)GlcNAc = biological target: GalNAc6S(b1-4)GlcNAc
# Outline: as §1
# Glc(a1-4)Glc = biological target: Glc(a1-4)Glc
# Outline: as §1
# [5] = biological target: Glc(a1-4)Glc(a1-4)Glc(a1-4)Glc
# Outline: as §1
# Glc(a1-6)Glc(a1-6)Glc = biological target: Glc(a1-6)Glc(a1-6)Glc
# Outline: as §1
# [6] = biological target: Glc(a1-6)Glc(a1-6)Glc(a1-6)Glc
# Outline: as §1
# Glc(b1-4)Glc = biological target: Glc(b1-4)Glc
# Outline: as §1
# Glc(b1-6)Glc = biological target: Glc(b1-6)Glc
# Outline: as §1
# GlcA(b1-3)Gal = biological target: GlcA(b1-3)Gal
# Outline: as §1
# GlcA(b1-3)GlcNAc = biological target: GlcA(b1-3)GlcNAc
# Outline: as §1
# GlcA(b1-6)Gal = biological target: GlcA(b1-6)Gal
# Outline: as §1
# [7] = biological target: GlcA3S(b1-3)Gal(b1-4)GlcNAc(b1-2)Man
# Outline: as §1
# [8] = biological target: GlcA3S(b1-3)Gal(b1-4)GlcNAc(b1-3)Gal(b1-4)Glc
# Outline: as §1
# [9] = biological target: GlcNAc(a1-3)Gal(b1-4)GlcNAc
# Outline: as §1
# [10] = biological target: GlcNAc(a1-4)Gal(b1-3)GlcNAc
# Outline: as §1
# [11] = biological target: GlcNAc(a1-4)Gal(b1-4)GalNAc
# Outline: as §1
# [12] = biological target: GlcNAc(a1-4)Gal(b1-4)GlcNAc
# Outline: as §1
# [13] = biological target: GlcNAc(a1-4)Gal(b1-4)GlcNAc(b1-3)Gal(b1-4)Glc
# Outline: as §1
# [14] = biological target: GlcNAc(a1-4)Gal(b1-4)GlcNAc(b1-3)Gal(b1-4)GlcNAc
# Outline: as §1
# [15] = biological target: GlcNAc(a1-4)Gal(b1-4)GlcNAc(b1-3)Gal(b1-4)GlcNAc(b1-3)Gal(b1-4)GlcNAc
# Outline: as §1
# [16] = biological target: GlcNAc(a1-4)Gal(b1-4)GlcNAc(b1-3)Gal(b1-4)[Fuc(a1-3)]GlcNAc(b1-3)Gal(b1-4)[Fuc(a1-3)]GlcNAc
# Outline: as §1
# [17] = biological target: GlcNAc(a1-6)Gal(b1-4)GlcNAc
# Outline: as §1
# [18] = biological target: GlcNAc(b1-2)Gal(b1-3)GalNAc
# Outline: as §1
# [19] = biological target: GlcNAc(b1-2)Man(a1-3)[GlcNAc(b1-2)Man(a1-6)]Man(b1-4)GlcNAc(b1-4)GlcNAc
# Outline: as §1
# [20] = biological target: GlcNAc(b1-2)Man(a1-3)[GlcNAc(b1-2)Man(a1-6)]Man(b1-4)GlcNAc(b1-4)[Fuc(a1-6)]GlcNAc
# Outline: as §1
# [21] = biological target: GlcNAc(b1-2)Man(a1-3)[GlcNAc(b1-4)][GlcNAc(b1-2)Man(a1-6)]Man(b1-4)GlcNAc(b1-4)GlcNAc
# Outline: as §1
# [22] = biological target: GlcNAc(b1-2)Man(a1-3)[GlcNAc(b1-4)][GlcNAc(b1-2)Man(a1-6)]Man(b1-4)GlcNAc(b1-4)[Fuc(a1-6)]GlcNAc
# Outline: as §1
# [23] = biological target: GlcNAc(b1-2)[GlcNAc(b1-4)]Man(a1-3)[GlcNAc(b1-2)Man(a1-6)]Man(b1-4)GlcNAc(b1-4)GlcNAc
# Outline: as §1
# [24] = biological target: GlcNAc(b1-2)[GlcNAc(b1-4)]Man(a1-3)[GlcNAc(b1-4)][GlcNAc(b1-2)Man(a1-6)]Man(b1-4)GlcNAc(b1-4)GlcNAc
# Outline: as §1
# [25] = biological target: GlcNAc(b1-2)[GlcNAc(b1-4)]Man(a1-3)[GlcNAc(b1-4)][GlcNAc(b1-2)[GlcNAc(b1-6)]Man(a1-6)]Man(b1-4)GlcNAc(b1-4)GlcNAc
# Outline: as §1
# [26] = biological target: GlcNAc(b1-2)[GlcNAc(b1-4)]Man(a1-3)[GlcNAc(b1-4)][GlcNAc(b1-2)[GlcNAc(b1-6)]Man(a1-6)]Man(b1-4)GlcNAc(b1-4)[Fuc(a1-6)]GlcNAc
# Outline: as §1
# [27] = biological target: GlcNAc(b1-2)[GlcNAc(b1-6)]Man(a1-6)[GlcNAc(b1-2)Man(a1-3)]Man(b1-4)GlcNAc(b1-4)GlcNAc
# Outline: as §1
# [28] = biological target: GlcNAc(b1-2)[GlcNAc(b1-6)]Man(a1-6)[GlcNAc(b1-2)Man(a1-3)]Man(b1-4)GlcNAc(b1-4)[Fuc(a1-6)]GlcNAc
# Outline: as §1
# [29] = biological target: GlcNAc(b1-2)[GlcNAc(b1-6)]Man(a1-6)[GlcNAc(b1-4)][GlcNAc(b1-2)Man(a1-3)]Man(b1-4)GlcNAc(b1-4)GlcNAc
# Outline: as §1
# GlcNAc(b1-3)Fuc = biological target: GlcNAc(b1-3)Fuc
# Outline: as §1
# GlcNAc(b1-3)Gal = biological target: GlcNAc(b1-3)Gal
# Outline: as §1
binder,measurement,setting,value
B1,glycan array binding signal (z-score),GalNAc(b1-4)GlcNAc,0.053
same,glycan array binding signal (z-score),[1],-0.402
same,glycan array binding signal (z-score),[2],-0.27
same,glycan array binding signal (z-score),[3],-0.376
same,glycan array binding signal (z-score),GalNAc(b1-4)GlcNAc6S,-0.368
same,glycan array binding signal (z-score),GalNAc(b1-6)GalNAc,-0.114
same,glycan array binding signal (z-score),GalNAc3S(b1-4)GlcNAc,-0.432
same,glycan array binding signal (z-score),GalNAc3S(b1-4)GlcNAc3S,-0.14
same,glycan array binding signal (z-score),[4],-0.399
same,glycan array binding signal (z-score),GalNAc4S6S(b1-4)GlcNAc,0.487
same,glycan array binding signal (z-score),GalNAc6S(b1-4)GlcNAc,-0.039
same,glycan array binding signal (z-score),Glc(a1-4)Glc,0.02
same,glycan array binding signal (z-score),[5],0.332
same,glycan array binding signal (z-score),Glc(a1-6)Glc(a1-6)Glc,-0.268
same,glycan array binding signal (z-score),[6],0.094
same,glycan array binding signal (z-score),Glc(b1-4)Glc,1.04
same,glycan array binding signal (z-score),Glc(b1-6)Glc,0.495
same,glycan array binding signal (z-score),GlcA(b1-3)Gal,-0.107
same,glycan array binding signal (z-score),GlcA(b1-3)GlcNAc,-0.198
same,glycan array binding signal (z-score),GlcA(b1-6)Gal,-0.059
same,glycan array binding signal (z-score),[7],-0.221
same,glycan array binding signal (z-score),[8],-0.379
same,glycan array binding signal (z-score),[9],-0.144
same,glycan array binding signal (z-score),[10],-0.234
same,glycan array binding signal (z-score),[11],-0.116
same,glycan array binding signal (z-score),[12],0.052
same,glycan array binding signal (z-score),[13],-0.364
same,glycan array binding signal (z-score),[14],-0.247
same,glycan array binding signal (z-score),[15],-0.305
same,glycan array binding signal (z-score),[16],0.543
same,glycan array binding signal (z-score),[17],0.146
same,glycan array binding signal (z-score),[18],0.487
same,glycan array binding signal (z-score),[19],0.065
same,glycan array binding signal (z-score),[20],-0.409
same,glycan array binding signal (z-score),[21],-0.445
same,glycan array binding signal (z-score),[22],-0.439
same,glycan array binding signal (z-score),[23],-0.395
same,glycan array binding signal (z-score),[24],-0.019
same,glycan array binding signal (z-score),[25],-0.437
same,glycan array binding signal (z-score),[26],-0.43
same,glycan array binding signal (z-score),[27],-0.469
same,glycan array binding signal (z-score),[28],-0.218
same,glycan array binding signal (z-score),[29],-0.415
same,glycan array binding signal (z-score),GlcNAc(b1-3)Fuc,-0.354
same,glycan array binding signal (z-score),GlcNAc(b1-3)Gal,0.32
